Data: PubChem BioAssay AID588342 (National Center for Advancing Translational Sciences (NCATS), 2011)
Where “and” joins values, the source holds several entries; their conditions need not be identical. Equal entries are not always repeated. The campaign covered roughly 360,000 compounds. About 25,000 (6.9%) were called active. This list was built around the results that the source calls inconclusive (neither active nor inactive); the mix of calls is not that of the screen. Calls follow the shape of the dose curve; as a rule, active = well fitted inhibition curve with a large enough effect; inconclusive = small, poorly fitted or top-dose-only effect; inactive = flat fitted curve, though single readings scatter. A potency beside an inconclusive call is a rough fit, not a confirmed value.

Target: Luciferin 4-monooxygenase (Photinus pyralis) (UniProt P08659)
Assay: qHTS profiling assay for firefly luciferase inhibitor/activator using purifed enzyme and Km concentrations of substrates (counterscreen for miR-21 project); also: nearly all actives have a fitted effect of over 55% in size;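 as to activity change, negative = inhibition: plate controls were vehicle for no effect and reference inhibitor for full effect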
Settings: purified FLuc, luminescence inhibition; series mostly up to 57.5 µM
From the text: MLPCN Grant: 1 R21 NS059478-01 (miR-21 grant) Assay Provider: NCGC NCGC Assay Overview: Firefly (Photinus pyralis) luciferase is one of the most commonly used transcriptional reporters for a number of reasons. It is considered one of the more dynamically responsive reporters -that is, responsive to changes in reporter transcription - as it requires no post-translational modifications and is enzymatically active directly after protein synthesis (Wood, 1998). Additionally, the half-life of the luciferase protein is short relative to other reporter-gene products (Wood, 1995). Whereas reporters with long half-lives potentially allow for increased signal due to accumulation of reporter-gene product, once accumulated in the cell, dynamic changes in reporter-gene expression may be difficult to detect(Fan and Wood, 2007; Almond et al., 2004). It has been shown that wild-type P. pyralis luciferase has a half-life of approximately […] hours in mammalian cells (Thompson et al., 1991). Firefly luciferase reporter-gene assays are also generally considered one of the most sensitive assay types (Wood, 1995; Wood, 1998). Although light produced in a bioluminescence reaction is of lower intensity than that produced during fluorescence emission, this is offset by little to no background light inherent to luminescent assays. Thus the luciferase reporter can be expressed at much lower levels than fluorescent proteins while still providing robust signal. # However, it was initially observed, in 1991, by Thompson et al., that compounds that resemble the substrates of firefly luciferase (FLuc) can act as competitive inhibitors of the enzyme, and that these compounds, upon interaction with luciferase in the cell, can actually stabilize the protein and increase its half-life. Accumulated intracellular FLuc protein can be measured as an increase in luminescence signal, upon addition of detection reagents (which contain high concentrations of FLuc substrates) commonly used in high-throughput screening. In cell-based reporter gene assays that use FLuc as the reporter gene to quantitate the potential influence of a given compound against the target biology, this apparent increase in luminescence can mistakenly be interpreted as identification of a compound that is active against the target of interest. This is the case for the miR-21 FLuc reporter gene assay used to identify inhibitors of the miR-21 pathway (PubChem AID 2289) - compounds of interest will inhibit miR-21 biogenesis/expression or activity, and are identified by causing an increase in luminescence, due to increased FLuc translation. However, FLuc inhibitory compounds that stabilize the FLuc protein will give an identical read-out, making it difficult to distinguish compounds that are active against the target from those active against FLuc. Previous profiling work to determine the prevalence of compounds that affect FLuc enzymatic activity (PubChem AID 411) identified that ~3% of the MLSMR library (then at ~72K) inhibited FLuc. […] Since the MLSMR had grown to ~350K compounds, and since it was expected that a significant percentage of compounds found active in the miR-21 FLuc assay would be FLuc inhibitors, the library was screened for activity against FLuc using a biochemical assay of purified FLuc and KM concentrations of FLuc substrates (D-luciferin and ATP).
NCGC Assay Protocol Summary: Reagents: 50mM Tris acetate, pH 7.5; 10mM Mg acetate; 10uM D-luciferin (Sigma #L9504); 10uM ATP; 0.01% Tween-20; 0.05% BSA; 10nM P. pyralis luciferase (Sigma #L9506) Control compounds used were two known firefly luciferase inhibitors (compounds (2) and (5) in Auld et al., 2010), and DMSO. […]
Tags tell the direction and shape of the fitted curve.

Chain of UniProt P08659 (P08659 whole entry, looked up): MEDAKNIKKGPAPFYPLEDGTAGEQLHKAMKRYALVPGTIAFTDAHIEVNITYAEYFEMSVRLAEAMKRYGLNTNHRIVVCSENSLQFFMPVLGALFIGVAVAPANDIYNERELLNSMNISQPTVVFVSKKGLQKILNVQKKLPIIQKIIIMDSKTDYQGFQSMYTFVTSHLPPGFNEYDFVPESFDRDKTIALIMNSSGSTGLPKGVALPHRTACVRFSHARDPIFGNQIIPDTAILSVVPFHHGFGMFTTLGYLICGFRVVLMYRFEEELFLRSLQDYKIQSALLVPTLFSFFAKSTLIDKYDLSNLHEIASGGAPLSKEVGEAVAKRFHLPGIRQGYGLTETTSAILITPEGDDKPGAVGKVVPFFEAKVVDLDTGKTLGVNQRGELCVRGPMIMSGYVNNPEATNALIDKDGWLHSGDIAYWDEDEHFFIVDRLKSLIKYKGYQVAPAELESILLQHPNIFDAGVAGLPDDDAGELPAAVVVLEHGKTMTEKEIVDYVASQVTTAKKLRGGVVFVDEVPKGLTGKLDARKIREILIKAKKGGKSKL

| Structure (SMILES) | Potency | activity change, negative = inhibition |
| --- | --- | --- |
| Cc1occc1C(=O)NNC(=S)NC(=O)COc1ccc(Cl)cc1Cl | inconclusive: 30.1 µM [inhibitor, single point] |  |
| COc1cccc(/C=C2/C(=O)NN(c3ccccc3)C2=O)c1 | active: 23.9 µM |  |
| O=C(NCc1ccccc1)C(=O)NCC(c1ccc2c(c1)OCO2)N1CCOCC1 (stereo not drawn) | inactive |  |
| CC(NC(=O)COC(=O)Cc1ccc(-c2ccccc2)cc1)c1ccccc1 (stereo not drawn) | inconclusive: 30.1 µM [inhibitor, single point] |  |
| COc1cccc(-c2c(C(=O)N/N=C/c3ccsc3)nnn2-c2nonc2N)c1 | inconclusive: 30.1 µM [inhibitor, partial curve, poor fit] |  |
| O=C(CCN=C1NS(=O)(=O)c2ccccc21)OCC(=O)c1ccccc1 | inconclusive: 26.9 µM [inhibitor, single point] |  |
| CC(=O)c1sc(NC(=O)c2ccc(F)c(F)c2)nc1C | inconclusive: 3.01 µM [inhibitor, full curve] |  |
| CCCCCc1ccc(-c2ccc(/C=C/C(N)=O)cc2)nc1 | active: 4.78 µM |  |
| FC(F)(F)c1ccc(C2Nc3cccc4cccc(c34)N2)cc1 | inconclusive: 37.9 µM [inhibitor, partial curve, poor fit] |  |
| COc1ccc2cc(C(C)C(=O)Nc3cccc(S(=O)(=O)N(C)C)c3)ccc2c1 (stereo not drawn) | inconclusive: 30.1 µM [inhibitor, partial curve, poor fit] |  |
| COc1ccc(OCCSc2nnc(C(C)NC(=O)c3ccccc3F)n2C)cc1 (stereo not drawn) | inactive |  |
| O=C(Nc1ccc(OC(F)(F)F)cc1)NC1CCC(Oc2ccc(C(=O)O)cc2)CC1 (stereo not drawn) | inconclusive: 17.8 µM [inhibitor, partial curve, poor fit] |  |
| Cc1ccc(C(=O)NC(=S)Nc2ccc(CN3CCOCC3)cc2)cc1 | inconclusive: 23.9 µM [inhibitor, partial curve, poor fit] |  |
| O=C1NC(c2ccccc2)=N/C1=C/c1ccco1 | active: 2.13 µM |  |
| CCN(CC)C(=O)c1ccc(C(=O)c2ccccc2)cc1 | inconclusive: 23.9 µM [inhibitor, partial curve, poor fit] |  |
| CC(=O)Nc1cc(C)nn1-c1nc2ccccc2s1 | inconclusive: 16.9 µM [inhibitor, partial curve, poor fit] |  |
| Nc1c(-c2ccccc2)n[nH]c1-c1ccccc1 |  | inactive: -3.72% [at 2.3 µM] |
| Fc1ccccc1NC(=S)N/N=C/c1ccccc1Br | active: 13.5 µM |  |
| O=C(O)c1ccc(Nc2nc(-c3cccnc3)cs2)cc1O | active: 12 µM |  |
| CCOc1ccc(CC(=O)Nc2ccc(-c3ccc4nnc(C)n4n3)cc2)cc1 | inactive |  |
| COc1ccc(NC(=O)c2cnc3sccn3c2=O)cc1 | inconclusive: 2.69 µM [inhibitor, full curve] |  |
| CCc1ccc(-c2csc(NC(=O)C3=COCCO3)n2)cc1 | active: 8.49 µM |  |
| O=C(Cc1cccc2ccccc12)Nc1cc(Cl)ccc1C(=O)O | inactive |  |
| Cc1nn(Cc2ccc(F)cc2)c(C)c1NC(=O)c1cc(CC(C)C)on1 | inactive |  |
| COC(=O)c1scc(-c2ccc(C)cc2)c1S(=O)(=O)Nc1cc(Cl)ccc1C | inconclusive: 8.49 µM [inhibitor, partial curve] |  |

| Structure (SMILES) | Potency | activity change, negative = inhibition |
| --- | --- | --- |
| O=C(N/N=C/c1c[nH]c2ccccc12)c1ccccc1O | active: 6.01 µM |  |
| COc1cccc(NC(=O)Nc2ccc(Br)cn2)c1 | inconclusive: 2.69 µM [inhibitor, full curve] |  |
| Cc1ccc(C(=O)N/N=C2\CCc3ccccc32)c(C)c1 | active: 4.78 µM |  |
| CCC1CCCCN1C(=O)CCc1nnc(Cc2cc(OC)ccc2OC)o1 (stereo not drawn) | inconclusive: 23.9 µM [inhibitor, partial curve] |  |
| N#Cc1nc(-c2ccccc2Cl)oc1N1CCCCC1 | inconclusive: 23.9 µM [inhibitor, partial curve, poor fit] |  |
| COc1cccc(C2=CC(c3ccc(N(C)C)cc3)n3ncnc3N2)c1 (stereo not drawn) | inconclusive: 26.9 µM [inhibitor, partial curve, poor fit] |  |
| CCCn1c(SCc2nc(-c3ccc(OC)cc3OC)no2)nnc1-c1ccc(Cl)cc1 | inconclusive: 23.9 µM [inhibitor, partial curve] |  |
| NC(=O)C1CCN(C(=S)c2ccc(-c3ccc(Br)cc3)o2)CC1 | inconclusive: 7.57 µM [inhibitor, partial curve] and inconclusive: 8.49 µM [inhibitor, partial curve, poor fit] |  |
| O=C(CCCN1C(=O)/C(=C\c2cccs2)SC1=S)Nc1ccc(C(=O)O)cc1 | inconclusive: 30.1 µM [inhibitor, single point] |  |
| COc1ccc(CCNC(=O)CCCn2c(=O)c3ccccc3n(Cc3cccc(Cl)c3)c2=O)cc1OC | inactive |  |
| COCCCn1c(SCC(=O)Nc2sc3c(c2C#N)CCCC3)nnc1-c1ccncc1 | inconclusive: 23.9 µM [inhibitor, partial curve, poor fit] |  |
| Cc1cc2oc(=O)cc(CN(C)Cc3ccccc3F)c2cc1Cl | inconclusive: 21.3 µM [inhibitor, partial curve] |  |
| CCOc1ccc2nc(N3CCCC(C(=O)Nc4c(C)cccc4C)C3)sc2c1 (stereo not drawn) | inconclusive: 1.9 µM [inhibitor, full curve] |  |
| CC(=O)Nc1ccc(C(=O)CSc2nnnn2C(C)C)cc1 | inconclusive: 30.1 µM [inhibitor, single point] |  |
| Fc1cc(F)c2nc(N3CCOCC3)sc2c1 | inconclusive: 23.9 µM [inhibitor, single point] |  |
| O=C(C1CCN(S(=O)(=O)c2ccc(Br)s2)CC1)N1CCN(c2cccc(Cl)c2)CC1 | inactive |  |
| Cc1ccc(N2CC(C(=O)Nc3nc4ccc(S(C)(=O)=O)cc4s3)CC2=O)cc1C (stereo not drawn) | inconclusive: 37.9 µM [inhibitor, single point] |  |
| CCC(=O)NCCc1nc2cc(NC(=O)c3ccccc3Cl)ccc2n1C | inconclusive: 23.9 µM [inhibitor, partial curve, poor fit] |  |
| O=C(O)c1cc(-c2cccc(Cl)c2)nc2nc(N3CCCCC3)sc12 | inconclusive: 37.9 µM [inhibitor, single point] |  |
| Cc1ccc2[nH]c(CSc3nnc(NC(=O)COc4ccccc4)s3)cc(=O)c2c1 | inconclusive: 26.9 µM [inhibitor, single point] |  |
| O=C(Nc1cccc(-c2cnc3ccccc3n2)c1)c1cccc(NC(=O)c2ccco2)c1 | active: 10.7 µM |  |
| CCCCOCCCn1c(-c2ccco2)nc2nc3ccccc3nc21 | inconclusive: 37.9 µM [inhibitor, partial curve, poor fit] |  |
| O=C(Nc1ccc(S(=O)(=O)N2CCCCCC2)cc1)c1ccco1 | inconclusive: 16.9 µM [inhibitor, partial curve] |  |
| CCOc1ccc(C2c3[nH]c4ccccc4c3CCN2C(=O)CCc2ccccc2)cc1 (stereo not drawn) | inactive |  |
| CCOC(=O)c1cnn(-c2ccc(C)cc2)c1N | inconclusive: 8.49 µM [inhibitor, partial curve] |  |

| Structure (SMILES) | Potency | activity change, negative = inhibition |
| --- | --- | --- |
| CCC(C)NC(=O)c1cn(CC)c2cc(N3CCN(C(=O)c4ccco4)CC3)c(F)cc2c1=O (stereo not drawn) | inactive |  |
| O=C(Nc1ccncc1)c1ccc(Cl)c(S(=O)(=O)N2CCCC2)c1 | inactive |  |
| COc1cccc(/C=C2\SC(=S)N(CC(=O)N(C)C3CCS(=O)(=O)C3)C2=O)c1 (stereo not drawn) | active: 10.7 µM |  |
| CCN(c1cccc(C)c1)S(=O)(=O)c1nnc(NC(=O)C2CCCCC2)s1 | active: 15.1 µM |  |
| CNc1nc(SCc2ccc(C)cc2)nc2c1CCCC2 | inconclusive: 23.9 µM [inhibitor, single point] |  |
| COc1ccc(N2CCN(S(=O)(=O)c3ccc4oc(=O)c5ncn(C)c5c4c3)CC2)cc1 | inactive |  |
| COc1ccc(-c2nc3sc(CCNC(=O)c4cc(OC)c(OC)c(OC)c4)c(C)n3n2)cc1 | active: 10.7 µM |  |
| O=C(NCc1n[nH]c(=S)n1-c1ccc(Br)cc1)c1ccc(S(=O)(=O)N2CCCCC2)cc1 | inactive |  |
| Nc1nc2ccc(Oc3ccccc3)cc2s1 | active: 8.49 µM |  |
| COc1c(-c2ccc([N+](=O)[O-])cc2[N+](=O)[O-])c(=O)n(C)c(=O)n1C | inconclusive: 26.9 µM [inhibitor, partial curve, poor fit] |  |
| CCC1S/C(=N/C(=O)NC2CCCCC2)NC1=O (stereo not drawn) | inconclusive: 16.9 µM [inhibitor, partial curve] |  |
| CCN(CC)c1ccc2oc(=O)c(C)nc2c1 | inconclusive: 30.1 µM [inhibitor, single point] |  |
| CC(=O)Nc1ccc(N)cc1 | inactive |  |
| COCCNC(=O)c1ccccc1NS(=O)(=O)c1ccc(Br)s1 | inactive |  |
| Cc1ccc(Cn2ccc(NC(=O)c3cc(-c4ccccc4)on3)n2)cc1 | inactive |  |
| Cc1cc(C(=O)CSc2nn3c(=O)c(C(C)(C)C)nnc3s2)c(C)n1-c1ccc(F)cc1 | inconclusive: 6.75 µM [inhibitor, partial curve] |  |
| COc1ccc(/C=C2\SC(=S)N(CC(=O)N(C)C3CCS(=O)(=O)C3)C2=O)cc1 (stereo not drawn) | active: 19 µM |  |
| Cc1cccc(S(=O)(=O)C(C#N)c2nc3ccccc3nc2N2CCCC2)c1 (stereo not drawn) | inactive |  |
| Nc1c(-c2nc(-c3cccs3)no2)nnn1-c1ccccc1Cl | inconclusive: 0.536 µM [inhibitor, full curve] |  |
| COc1ccccc1C(=O)CSc1cccc[n+]1[O-] | inactive |  |
| O=C(NCc1ccco1)C1CCN(C(=O)N2CCOc3ccccc32)CC1 | inactive |  |
| O=C(O)CCc1ccc(-c2cccs2)o1 | inactive |  |
| Cc1[nH]n(-c2ccccc2)c(=O)c1C=Nc1cccc2cccnc12 | inconclusive: 23.9 µM [inhibitor, single point] |  |
